# Reference: the supplement of paper PMC3334620
# In all, about 33,000 sequences were measured (“E-score (-0.5 to 0.5)”: median about -0.035, highest 2% from about 0.34 on). Some of the results follow.
# Target: T1, Mot3 (UniProt P54785)
# T1 sequence: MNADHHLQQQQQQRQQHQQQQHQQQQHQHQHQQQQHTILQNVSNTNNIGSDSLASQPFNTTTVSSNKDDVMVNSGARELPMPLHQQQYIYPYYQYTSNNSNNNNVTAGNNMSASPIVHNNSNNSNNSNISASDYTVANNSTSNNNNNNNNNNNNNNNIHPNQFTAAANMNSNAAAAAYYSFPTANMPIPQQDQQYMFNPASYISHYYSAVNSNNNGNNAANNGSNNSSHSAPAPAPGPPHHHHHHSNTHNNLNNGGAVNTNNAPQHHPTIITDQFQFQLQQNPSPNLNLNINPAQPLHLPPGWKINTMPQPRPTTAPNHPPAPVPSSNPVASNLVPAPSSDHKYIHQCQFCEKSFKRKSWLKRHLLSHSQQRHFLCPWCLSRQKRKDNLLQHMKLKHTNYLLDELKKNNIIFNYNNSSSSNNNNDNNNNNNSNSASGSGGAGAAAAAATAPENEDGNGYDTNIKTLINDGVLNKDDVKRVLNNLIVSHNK
# Assay: PBM E-score (8-mer binding enrichment) (E-score (-0.5 to 0.5)); higher = stronger / more preferred TF binding; most listed sequences are background and not binding sites
# Settings: protein concentration: 200 nM; construct: GST-full length
# Outline: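 Masliner-normalised scans of fluorescent anti-GST signal were the basis for scoring. That signal came from GST-tagged yeast transcription factors applied at about 100-200 nM to double-stranded universal all-10-mer Agilent arrays on fresh or once-stripped slides. Each ungapped eight-base word, pooled with its reverse complement, received an E-score from the Universal PBM Analysis Suite.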
row,Sequence,PBM E-score
1,ATTAGAAC,0.0827
2,ACATGAGA,0.309
3,TCTGTTAA,0.207
4,ATGGGCGC,-0.291
5,ACGGGTTG,-0.18
6,GGTAAGCA,-0.136
7,GCACACCC,-0.102
8,CCGAAGTC,-0.108
9,CTACGCCA,-0.0226
10,TCAGGGCA,0.111
11,TGCATCCA,-0.0735
12,ACTACGCT,0.0652
13,GCCGGCCC,-0.33
14,CAAGCTTA,-0.142
15,GACTGTCC,-0.143
16,GGGAAAAC,-0.195
17,TATGACAA,0.077
18,CAATCAGG,0.00489
19,CGGTTAGC,-0.145
20,ATTAAGTA,0.0749
21,CGTTAATA,0.195
22,GGGACAAC,-0.0492
23,ACCATTCG,-0.0746
24,CGTAAGTC,-0.0604
25,ATTGCAAA,0.0186

row,Sequence,PBM E-score
1,CAATACGA,0.0195
2,ACGGTCTG,-0.0141
3,GTGCCCAA,0.392
4,GAGTATAC,0.0757
5,CTTTAAAA,0.118
6,AATCTGAG,-0.0256
7,GACTAAGC,-0.143
8,CAGCTACA,0.133
9,GCCTTGCC,0.416
10,AGGGCGTA,-0.0718
11,CGTGCCGA,-0.00421
12,ATCCTACG,-0.124
13,TACAAGTA,0.221
14,GCACCGGC,-0.0095
15,TAAACATA,0.284
16,CCGGTCGA,-0.303
17,AAACATAA,0.308
18,ATAGGGAG,-0.165
19,ATAATCCA,-0.00343
20,ATCTACAT,0.349
21,GGGTACGA,-0.148
22,ATATCCAG,-0.0458
23,CCCACTTC,-0.221
24,AATGGAGA,-0.155
25,AGGCAAAG,0.472

row,Sequence,PBM E-score
1,ACTAGTCT,-0.0432
2,ATTTGTTG,0.113
3,ATTCACGA,0.0642
4,GCCGCCGA,-0.218
5,GACCCTGC,-0.119
6,AGGGATAA,0.0972
7,CGGTAGGA,0.0346
8,CCGGGAGC,-0.282
9,CGCTGTGC,-0.0145
10,CAACATCC,0.0854
11,CGACAAGC,0.04
12,GAAGTTAA,0.184
13,CAAACCAC,-0.0198
14,ACATCAAT,0.219
15,AGGCTGAG,-0.0976
16,CCAAAGTA,-0.0981
17,ACAACTGC,-0.0109
18,AAATACAT,0.344
19,ATGATCTG,0.0224
20,AGGGACCT,-0.103
21,ATTTGTGA,-0.11
22,AAATTGAT,0.114
23,TCCTGCCA,0.12
24,GAGCTAAA,-0.205
25,CCTGATCG,-0.249

row,Sequence,PBM E-score
1,ACGGGTCA,-0.13
2,ACCTCCAA,0.0441
3,ATGGAAAA,-0.0018
4,ACATCAAC,0.163
5,AAACCCAG,0.0423
6,CCACCAAG,-0.269
7,GACCAAGC,-0.251
8,AATAACAC,0.31
9,ATAGCCAG,-0.221
10,GAAAAGGA,0.164
11,AACATCCA,0.089
12,ATCAATGC,-0.189
13,GGACAAAC,0.0402
14,ACATCAGC,0.0369
15,CGGACCCC,-0.0309
16,GACTAGAA,0.0191
17,ATCGGCGG,-0.342
18,CTTGGGTA,0.037
19,CAGTTGTC,-0.112
20,GGACTGCA,-0.204
21,GTATCAGA,0.0523
22,CTTCGAAC,0.0235
23,TATAGGAA,0.412
24,GCCACTCA,-0.285
25,GACTCACC,-0.38

row,Sequence,PBM E-score
1,AATCGAAC,-0.0103
2,GAGTGGTA,-0.171
3,GTCCCCAC,-0.356
4,ATGTCAAT,0.339
5,AGCCTGCG,0.115
6,ATCCCATC,-0.163
7,GTTACAAC,0.221
8,ATCTTCGG,-0.0679
9,AAACTAAT,0.0986
10,ATTTGGGA,-0.159
11,GCCTATCC,-0.0377
12,CCCTAGAG,-0.231
13,ATCAAAGA,0.0406
14,GATTCGGC,-0.133
15,TAACGACA,0.166
16,GTAGCTCA,-0.157
17,ATTGCAAT,0.0553
18,ATCGACAA,-0.0469
19,AGTACCCC,-0.124
20,AGGATGGA,-0.273
21,ATATTAGG,0.106
22,AGCATGTC,0.218
23,GGATAACA,0.218
24,ACGTTCAA,0.108
25,GGTAAAAC,0.142

row,Sequence,PBM E-score
1,ACAATCCG,-0.0793
2,CACGTATC,0.184
3,CAGGGTCA,-0.0468
4,ATGGAGGA,0.0248
5,AGGGCGCA,-0.113
6,CTGAGCGA,-0.127
7,GAGGCCTA,-0.22
8,AAATCCAA,-0.0552
9,ATAACTGG,-0.219
10,GAAGGAGA,0.127
11,CAGAGAGA,-0.238
12,CTAGCAAG,0.0259
13,GGAGAACA,-0.0362
14,CAAACCTG,-0.121
15,AAATCGCA,-0.215
16,AGAAATTC,-0.159
17,AGCTAAGG,0.0695
18,ACCACCAC,-0.153
19,CGGGGTAG,-0.248
20,AATTATTC,0.17
21,CAGTGCCG,-0.173
22,GCAGATTA,-0.143
23,CACAACGA,0.0814
24,CAAGGTGG,-0.0692
25,CGGTTTCA,-0.148

row,Sequence,PBM E-score
1,CGCTGCCC,-0.186
2,CCTTGTGA,0.0551
3,AAAAGGCC,-0.0159
4,AGAGAGAA,0.025
5,CTGATGGA,-0.229
6,AATCTCTG,-0.112
7,CCGGCTGC,-0.0585
8,CAATAAAA,0.0116
9,ACTCAGAC,0.0185
10,AGTACGGA,-0.135
11,ACAGCCCG,-0.0957
12,AAAACAGT,0.0461
13,ATAGTCTC,-0.0338
14,AAAGCTTT,0.0404
15,ACGCCTTG,-0.0342
16,AGTCTGAA,-0.204
17,ACACAGAG,0.2
18,CCGTTATA,0.0151
19,ACTGAGCC,-0.128
20,ATGCATTA,0.0537
21,GATAGCAA,0.031
22,AGGACAAT,-0.159
23,AGAGGAAA,0.0488
24,CTGTAGAA,0.191
25,CCAATTAA,0.0473

row,Sequence,PBM E-score
1,AAAAACGG,0.0004
2,AGTGTTAA,0.264
3,AACTCCGA,0.0093
4,ACTAACAG,0.0357
5,GAGTCAGA,-0.0798
6,AAGCACAG,0.0561
7,AACATTAT,0.266
8,CAGATGTA,-0.0233
9,AAATGTAT,0.188
10,CAAGCCGA,0.165
11,GGTCTTCA,-0.318
12,TCTAGCCA,-0.064
13,CCCTTCGC,-0.254
14,ACTCCGGG,-0.248
15,GGGGATAA,-0.137
16,AAAGCAAC,0.0484
17,AACAGTCG,-0.142
18,AGTCCACA,-0.11
19,AGCGCCTC,-0.33
20,CACTTCCA,-0.149
21,ACAGTATG,0.057
22,CATATAAC,0.136
23,ACCCCACT,-0.18
24,CGGGTTCA,-0.122
25,AAATATAT,0.275

row,Sequence,PBM E-score
1,AACAACCG,0.00436
2,ATCAACGA,0.056
3,CAGGACAC,0.0577
4,TATAATCA,0.0993
5,CAAGAATC,0.0746
6,CGCAAAAA,0.196
7,TGCTGACA,-0.0498
8,CGCTACTA,-0.00039
9,GCCAAGTA,-0.0832
10,GACAATGA,0.0225
11,ATCATATC,-0.0853
12,ATAGAGAT,0.0964
13,GAGTGCCA,-0.376
14,GCAGCCGA,-0.128
15,GCGCTGTA,0.029
16,GCACGAAA,0.0734
17,ATTCGTGA,0.0275
18,ACATTGCG,0.159
19,AACACCCA,0.0664
